Data as given in PubChem BioAssay AID1460 (National Center for Advancing Translational Sciences (NCATS), 2008).
Several values for one entry are separate records, joined by “and”; a condition that tells them apart may be missing. Equal entries are not always repeated. The whole screen tested about 270,000 compounds, of which about 5,800 (2.1%) were called active. The shares of active, inactive and inconclusive entries below differ from those in the screen. Calls come from the whole dose curve; as a rule, active = well fitted inhibition curve with a large enough effect; inconclusive = small, poorly fitted or top-dose-only effect; inactive = flat fitted curve, though single readings scatter. Potencies beside an inconclusive call are fits to weak or partial responses and may not hold up.

Each compound was assayed against Microtubule-associated protein tau (Homo sapiens) (UniProt P10636) (assay: qHTS for Inhibitors of Tau Fibril Formation, Thioflavin T Binding). Conditions: recombinant tau K18 P301L, heparin-induced fibrillization, ThT fluorescence; series mostly up to 57.4 µM.
Outline: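 Using a mix of unlabeled (15 uM) and Alexa 594-labeled (0.24 uM) tau K18 P301L, heparin-triggered fibrillization over 6 hr at 37 C was scored by ThT fluorescence.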
% is set by controls: 0 for no effect and ±100 for the full control effect; potency is the fitted concentration of half-maximal effect; tags give direction and shape of the fitted curve.
Note: nearly all actives have a fitted effect of over 55% in size.

UniProt P10636, sequence (P10636 whole entry, looked up): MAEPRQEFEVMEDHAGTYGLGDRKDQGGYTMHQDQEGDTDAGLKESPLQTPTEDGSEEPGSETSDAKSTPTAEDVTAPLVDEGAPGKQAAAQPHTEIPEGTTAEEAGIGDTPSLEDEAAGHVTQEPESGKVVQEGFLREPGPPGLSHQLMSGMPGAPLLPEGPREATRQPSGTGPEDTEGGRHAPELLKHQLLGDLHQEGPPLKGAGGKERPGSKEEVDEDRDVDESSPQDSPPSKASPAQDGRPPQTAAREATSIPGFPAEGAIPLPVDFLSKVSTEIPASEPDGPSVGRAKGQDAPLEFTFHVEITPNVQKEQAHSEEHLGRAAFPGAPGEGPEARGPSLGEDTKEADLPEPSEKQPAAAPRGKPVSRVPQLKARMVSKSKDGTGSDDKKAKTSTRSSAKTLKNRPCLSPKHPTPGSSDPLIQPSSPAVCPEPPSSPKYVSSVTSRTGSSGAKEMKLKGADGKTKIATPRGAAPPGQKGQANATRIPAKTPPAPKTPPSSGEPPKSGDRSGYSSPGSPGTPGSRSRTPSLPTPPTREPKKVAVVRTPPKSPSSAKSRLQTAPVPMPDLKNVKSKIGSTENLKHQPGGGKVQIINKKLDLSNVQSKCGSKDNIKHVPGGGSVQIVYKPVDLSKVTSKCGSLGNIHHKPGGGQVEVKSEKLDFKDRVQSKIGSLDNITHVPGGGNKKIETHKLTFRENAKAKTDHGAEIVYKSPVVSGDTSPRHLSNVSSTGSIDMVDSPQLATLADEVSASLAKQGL

| Structure (SMILES) | Potency |
| --- | --- |
| O=C(O)CCN1C(=O)/C(=C\c2ccncc2)SC1=S | inactive |
| O=C(Nc1ccc2c(c1)S(=O)(=O)N=C1CCCCCN12)c1ccccc1Cl | inconclusive: 11.2 µM [inhibitor, partial curve] |
| Cc1cccc(CC(=O)N2CC(=O)Nc3ccc(C)cc3C2c2ccc(F)cc2)c1 (stereo not drawn) | inconclusive: 17.8 µM [inhibitor, partial curve] |
| CCOC(=O)N1CCN(C(=O)CSc2nnc(-c3ccc(C(C)(C)C)cc3)o2)CC1 | inconclusive: 1.26 µM [inhibitor, full curve] |
| CCOc1ccc(-n2ccnc2SCC(=O)Nc2cccc3ccccc23)cc1 | inactive |
| CC(C)CN(Cc1cc(=O)oc2cc(-c3ccccc3)c(O)cc12)CC(C)C | inactive |
| O=C(NN=c1c(=O)c2ccccc2c1=O)c1ccccc1 | active: 5.62 µM |
| NNc1ccc2c(C(F)(F)F)cc(C(F)(F)F)nc2n1 | inconclusive: 7.08 µM [inhibitor, full curve] |
| Oc1[nH]c(=S)sc1/C=C1\C(c2ccccc2)=Nc2ccccc21 | inconclusive: 2.51 µM [inhibitor, partial curve] |
| Nc1nc(CN2CCN(Cc3ccccc3)CC2)nc(Nc2ccc3c(c2)OCCO3)n1 | inconclusive: 14.1 µM [inhibitor, partial curve] |
| CSc1ccc(NC(=O)C2CCN(c3ncccn3)CC2)cc1 | inconclusive: 0.224 µM [inhibitor, full curve] |
| Cc1cc(OC(=O)c2ccccc2Br)cc(=O)n1C | inconclusive: 8.91 µM [inhibitor, partial curve] |
| CC(=O)Nc1ccc(-c2nc(C)c(C(C)=O)n2O)cc1 | inconclusive: 12.6 µM [inhibitor, single point] |
| O=[N+]([O-])c1cccc(N/N=C/c2cccc(O)c2O)c1 | active: 7.94 µM |
| COc1ccc(N(Cc2cccs2)C(=O)COc2cccc(C)c2C)cc1 | inactive |
| Cc1ccccc1OCCOc1ccccc1C=C(C#N)C#N | inconclusive: 22.4 µM [inhibitor, partial curve] |
| COC(=O)CC1Oc2ccc(F)cc2-n2cc(-c3ccc(C)cc3)nc21 (stereo not drawn) | inactive |
| C[n+]1c2n(c3ccccc31)N=C(c1ccccc1)CS2 | inconclusive: 28.2 µM [inhibitor, partial curve] and inconclusive: 12.6 µM [inhibitor, partial curve, poor fit] |
| O=C(OCn1ncc(Br)c(Br)c1=O)c1ccc(F)cc1 | inconclusive: 39.8 µM [inhibitor, single point] |
| CCOC(=O)N1CCc2c(sc(NCc3cccc(F)c3)c2C(=O)Nc2ccc(OC)cc2)C1 | inconclusive: 31.6 µM [inhibitor, single point] |
| COc1ccc2[nH]c(C(=O)Nc3ncc(C)cc3Br)cc2c1 | inconclusive: 39.8 µM [inhibitor, partial curve] |
| Cc1c(C)n(CC(O)CN2C(=O)c3ccccc3S2(=O)=O)c2ccccc12 (stereo not drawn) | inactive |
| COc1cc(CNCc2ccccn2)ccc1OCc1cccc(Cl)c1 | inactive |
| Cc1ccc(N(C)C(=O)c2ccc3c(Cl)c4c(nc3c2)CCC4)cc1C | inconclusive: 31.6 µM [inhibitor, partial curve] |
| C=CCc1cccc(CNc2nc3ccccc3n2C(C)C)c1O | inactive |

| Structure (SMILES) | Potency |
| --- | --- |
| N#Cc1c(/N=C/N2CCOCC2)sc2c1CCCCC2 | inconclusive: 7.94 µM [inhibitor, partial curve] |
| C=CCn1c(SCC(=O)Nc2cc(OC)c(NC(=O)c3ccco3)cc2OC)nnc1-c1ccncc1 | inconclusive: 11.2 µM [inhibitor, partial curve] |
| O=C(Oc1c(-c2ccccc2)c(=O)n2c3c(cccc13)CC2)c1ccco1 | inconclusive: 20 µM [inhibitor, partial curve] |
| O=C(c1cc(C2CC2)on1)N1CCN(c2ccccc2)CC1 | inconclusive: 39.8 µM [inhibitor, single point] |
| CCCOC(=O)c1ccc(Oc2c(-c3ccc(OC)cc3O)n[nH]c2C)cc1 | inactive |
| Brc1ccc(Nc2c3c(nc4nncn24)CCC3)cc1 | inconclusive: 35.5 µM [inhibitor, single point] |
| O=C(/C=C/c1cccc([N+](=O)[O-])c1)NCCSCc1ccc(Cl)cc1 | inactive |
| CN(CC(=O)N1CCc2ccccc21)S(=O)(=O)c1ccc(Br)s1 | inactive |
| O=C(O)CCN1CCc2ccccc21 | inconclusive: 39.8 µM [inhibitor, single point] |
| CCN1C(=O)/C(=C/c2c(C)nn(C)c2C)SC1=S | inconclusive: 31.6 µM [inhibitor, partial curve, poor fit] |
| COc1ccc(N2CCN(C(=O)COc3ccccc3C#N)CC2)cc1 | inconclusive: 39.8 µM [inhibitor, single point] |
| CCN(CC)C(=O)CSc1ncnc2sc(-c3ccccc3)cc12 | inconclusive: 25.1 µM [inhibitor, partial curve] |
| CCCN(CCC)C(=O)CSc1c2c(nc3ccc(Cl)cc13)CCCC2 | inconclusive: 17.8 µM [inhibitor, partial curve] |
| CC(=O)N/N=C(\C)CC(=O)NC(C)(C)C | inactive |
| CC(=O)[C@]1(O)Cc2c(O)c3c(c(O)c2[C@@H](O[C@H]2C[C@H](N)[C@H](O)[C@H](C)O2)C1)C(=O)c1ccccc1C3=O | active: 3.55 µM |
| COc1ccc(-c2cc(=Nc3ccc(C)cc3)c3ccccc3o2)cc1 | inconclusive: 11.2 µM [inhibitor, partial curve] |
| CCOc1ccccc1CNC(=O)CCC(=O)N1CCSc2ccccc21 | inactive |
| O=c1cc(O)c2c(=O)n(-c3ccccc3)c3c(c2o1)CCCCCC3 | inactive |
| Cc1ccc(N2CCN(C(=S)c3ccc(-c4cccc([N+](=O)[O-])c4)o3)CC2)cc1 | inconclusive: 10 µM [inhibitor, partial curve] |
| COc1ccc(-c2nnc(SCCOc3cccc(C)c3)n2N)cc1 | inconclusive: 0.316 µM [inhibitor, full curve] |
| CCOC(=O)CSc1nc2ccc(N)cc2s1 | inconclusive: 12.6 µM [inhibitor, partial curve] |
| CCOC(=O)c1cc(-c2ccccc2)n(CCC(=O)NCCc2cccc(C)c2)c1C | inconclusive: 11.2 µM [inhibitor, partial curve, poor fit] |
| COc1ccccc1N1CCN(Cc2nc(N)nc(Nc3ccc(C)cc3)n2)CC1 | inconclusive: 17.8 µM [inhibitor, partial curve] |
| COC(=O)c1ccc(NC(=O)C(=O)NCC(c2cccnc2)N2CCN(c3ccccc3)CC2)cc1 (stereo not drawn) | inconclusive: 2.82 µM [inhibitor, single point] |
| CCOc1ccc2nc(Cl)c(/C=C/C(=O)c3ccco3)cc2c1 | inconclusive: 17.8 µM [inhibitor, partial curve] |

| Structure (SMILES) | Potency |
| --- | --- |
| CC(=O)c1cccc(NC(=O)Cc2ccc(NC(=O)N3CCCCc4ccccc43)cc2)c1 | inactive |
| COc1ccc(S(=O)(=O)N(CC(=O)NCCSc2ccccc2)c2ccc(C)cc2)cc1 | inactive |
| O=C(O)c1cccc(NC(=O)c2cc3cc(Br)cc(Br)c3oc2=O)c1 | inconclusive: 14.1 µM [inhibitor, partial curve] |
| O=C(O)c1ccc(Nc2nc(-c3ccccc3)cs2)cc1 | inconclusive: 17.8 µM [inhibitor, partial curve] |
| CCOC(=O)CC1=NN(c2ccccc2)C(=O)/C1=C\c1ccc(N(C)C)cc1 | active: 25.1 µM |
| CCCCN1CCCc2cc(CN(CCCN3CCOCC3)C(=O)Nc3ccc(CC)cc3)ccc21 | inconclusive: 28.2 µM [inhibitor, single point] |
| CCCCOC(=O)Nc1nc2ccc(OC)cc2s1 | inactive |
| COc1ccc(OCC(=O)Nc2c(C(=O)N3CCN(c4ccccc4)CC3)oc3ccccc23)cc1 | inactive |
| Brc1ccc2ncnc(Nc3ccc(N4CCOCC4)cc3)c2c1 | active: 8.91 µM |
| Cn1ccc2cc(NC(=O)Nc3cccnc3)ccc21 | inconclusive: 15.8 µM [inhibitor, partial curve] |
| Cc1ccc(NCC(=O)N=Nc2c(O)n(C)c3ccccc23)cc1 | inconclusive: 25.1 µM [inhibitor, partial curve, poor fit] |
| CCOc1ccc(S(=O)(=O)N2CCCCC2)c2ccccc12 | inactive |
| c1ccc2nc(-c3ccc4c(c3)OCO4)ccc2c1 | inconclusive: 2.82 µM [inhibitor, full curve] |
| COc1ccc(C(CC(=O)c2ccc(O)cc2)S(=O)(=O)c2ccc(C)cc2)cc1 (stereo not drawn) | inactive |
| Cc1cc(C)c(S(=O)(=O)N2CCN(C(=O)N(C)C)CC2)c(C)c1 | inconclusive: 31.6 µM [inhibitor, single point] |
| O=C(c1ccc(N2C(=O)C3CC=C(Cl)CC3C2=O)cc1)N1CCOCC1 (stereo not drawn) | inactive |
| CCN(c1ccccc1)c1cc(NC)[n+](C)c(C)n1 | inactive |
| CN1CCN(CCCN2c3ccccc3Sc3ccc(Cl)cc32)CC1 | inconclusive: 28.2 µM [inhibitor, single point] [middle of 4 runs] |
| Clc1ccc2nc(-c3ccccc3)[nH]c2c1 | inconclusive: 14.1 µM [activator, single point] |
| CCC(CC)C(=O)N1CCc2cc(OC)c(OC)cc2C1COc1ccccc1OC (stereo not drawn) | inactive |
| CCOc1cnc(-c2ccccc2F)o1 | inactive |
| CN1CCN(C(CNC(=O)C(=O)Nc2ccc(F)cc2)c2cccnc2)CC1 (stereo not drawn) | inconclusive: 31.6 µM [inhibitor, partial curve] |
| O=C(Nc1ccc2c(c1)OCCO2)c1ccc2ccccc2n1 | inconclusive: 14.1 µM [inhibitor, partial curve] |
